Over roughly 81,000 sequences, “one-hybrid fitness for binding NBS DNA” has its median near -0.1; the highest 2% begin near 0.36. This is one part of the list.
B1: Caulobacter ParB omega fusion; a variant is named by its letters at X, in order, B8GW30 (parent)
chain: MESVVVGEPGMSEGRRGLGRGLSALLGEVDAAPAQAPGEQLGGSREAPIEILQRNPDQPRRTFREEDLEDLSNSIREKGVLQPILVRPSPDTAGEYQIVAGERAWRAAQRAGLKTVPIMVRELDDLAVLEIGIIENVQRADLNVLEEALSYKVLMEKFERTQENIAQTIGKSXSHVANXMRLLXLPDEVQSYLVSGELTAXHARAIAAAADPVALAKQIIEGGLSVRETEALARKAPNLSAGKSKGGRPPRVKDTDTQALESDLSSVLGLDVSIDHRGSTGTLTITYATLEQLDDLCNRLTRGI

Variants of: B1
Assay: one-hybrid fitness for binding NBS DNA (the Noc-binding site; scaled: cognate 1, non-cognate 0); higher = stronger binding
Details: with NBS DNA site
Method in brief: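 Bacterial one-hybrid selection in E. coli USO rpoZ- hisB- pyrF- with a HIS3 reporter carrying the site 19 bp from the promoter, screening Caulobacter ParB libraries with four specificity codons randomised (NNS). Cells grew 48 hours at 37°C on M9-minus-histidine plus 0.1 mM IPTG and 5 mM 3-AT. Plasmids before and after selection were Illumina-sequenced, three replicate libraries pooled, and variants under 10 reads dropped. Fitness is the log change in variant-to-wild-type read ratio, rescaled to cognate 1, non-cognate 0.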

Row | Variant | one-hybrid fitness for binding NBS DNA
1 | CRVS | ≤ 0.2
2 | AMTD | ≤ 0.2
3 | LLTV | ≤ 0.2
4 | TSLQ | ≤ 0.2
5 | GMLH | 0.243
6 | RQWH | ≤ 0.2
7 | VHRF | ≤ 0.2
8 | DYST | ≤ 0.2
9 | TNNA | ≤ 0.2
10 | EHCN | ≤ 0.2
11 | QRAK | 0.373
12 | IGTF | ≤ 0.2
13 | ENHS | ≤ 0.2
14 | MDQG | ≤ 0.2
15 | VESR | ≤ 0.2
16 | LSRQ | ≤ 0.2
17 | WQLS | ≤ 0.2
18 | YSTV | ≤ 0.2
19 | RVHC | ≤ 0.2
20 | AFWG | ≤ 0.2
21 | LKEL | ≤ 0.2
22 | LMIC | ≤ 0.2
23 | PNKD | ≤ 0.2
24 | WNMP | ≤ 0.2
25 | HCAG | ≤ 0.2

Row | Variant | one-hybrid fitness for binding NBS DNA
26 | RFKH | ≤ 0.2
27 | RLIW | ≤ 0.2
28 | QSMT | 0.368
29 | GNMT | ≤ 0.2
30 | MTIT | ≤ 0.2
31 | KIDL | ≤ 0.2
32 | QTHL | ≤ 0.2
33 | APHN | ≤ 0.2
34 | RSNY | ≤ 0.2
35 | LPAT | ≤ 0.2
36 | ANRQ | ≤ 0.2
37 | NHII | ≤ 0.2
38 | PLVS | ≤ 0.2
39 | EDPV | ≤ 0.2
40 | VWTR | ≤ 0.2
41 | SLPS | ≤ 0.2
42 | DTIC | ≤ 0.2
43 | GVHF | ≤ 0.2
44 | RTVK | ≤ 0.2
45 | ECKC | ≤ 0.2
46 | DVIR | ≤ 0.2
47 | ITAA | ≤ 0.2
48 | YARD | ≤ 0.2
49 | CWHR | ≤ 0.2
50 | LVPT | ≤ 0.2

Row | Variant | one-hybrid fitness for binding NBS DNA
51 | RSQD | ≤ 0.2
52 | LLGM | ≤ 0.2
53 | IHKH | ≤ 0.2
54 | VMKY | ≤ 0.2
55 | KQAS | ≤ 0.2
56 | GRTP | ≤ 0.2
57 | LIYL | ≤ 0.2
58 | VETM | ≤ 0.2
59 | NMSA | ≤ 0.2
60 | CNFC | ≤ 0.2
61 | SRCT | ≤ 0.2
62 | MSTS | ≤ 0.2
63 | PNYD | ≤ 0.2
64 | RSLF | ≤ 0.2
65 | RCHN | ≤ 0.2
66 | LCEL | ≤ 0.2
67 | VDEV | ≤ 0.2
68 | LMIG | ≤ 0.2
69 | DYGL | ≤ 0.2
70 | LIRL | ≤ 0.2
71 | HGVA | ≤ 0.2
72 | YIQV | ≤ 0.2
73 | APKS | ≤ 0.2
74 | PDLC | ≤ 0.2
75 | RTRV | 0.288

Row | Variant | one-hybrid fitness for binding NBS DNA
76 | DVAS | ≤ 0.2
77 | GYHW | ≤ 0.2
78 | LLYS | ≤ 0.2
79 | TEYC | ≤ 0.2
80 | VGIS | ≤ 0.2
81 | TAWS | ≤ 0.2
82 | NNLA | ≤ 0.2
83 | QSRR | 1
84 | ENKF | ≤ 0.2
85 | TDQY | ≤ 0.2
86 | AAAM | ≤ 0.2
87 | GVGA | ≤ 0.2
88 | VDTG | ≤ 0.2
89 | GDQT | ≤ 0.2
90 | SKAT | ≤ 0.2
91 | QRAV | 0.424
92 | WEMG | ≤ 0.2
93 | AASN | ≤ 0.2
94 | LCST | ≤ 0.2
95 | MHQV | ≤ 0.2
96 | GWGR | ≤ 0.2
97 | HKGS | ≤ 0.2
98 | PNDL | ≤ 0.2
99 | NAKI | ≤ 0.2
100 | RSYA | ≤ 0.2

Row | Variant | one-hybrid fitness for binding NBS DNA
101 | AANE | ≤ 0.2
102 | NCRR | ≤ 0.2
103 | NYNG | ≤ 0.2
104 | ACLA | ≤ 0.2
105 | KVLY | ≤ 0.2
106 | GSCC | ≤ 0.2
107 | QCGK | ≤ 0.2
108 | RMVD | ≤ 0.2
109 | TKAD | ≤ 0.2
110 | YTHL | ≤ 0.2
111 | RINM | ≤ 0.2
112 | CYFC | ≤ 0.2
113 | RIVQ | ≤ 0.2
114 | DFIT | ≤ 0.2
115 | GRKM | ≤ 0.2
116 | QQEG | ≤ 0.2
117 | KLTI | ≤ 0.2
118 | GPQC | ≤ 0.2
119 | SIDC | ≤ 0.2
120 | LCLD | ≤ 0.2
121 | MREY | ≤ 0.2
122 | YNWS | ≤ 0.2
123 | QTAL | ≤ 0.2
124 | PYPS | ≤ 0.2
125 | QPNN | ≤ 0.2

Row | Variant | one-hybrid fitness for binding NBS DNA
126 | FPPC | ≤ 0.2
127 | DMIS | ≤ 0.2
128 | IYPN | ≤ 0.2
129 | SMHA | ≤ 0.2
130 | KPQV | ≤ 0.2
131 | MIMS | ≤ 0.2
132 | DHTC | ≤ 0.2
133 | RPQS | ≤ 0.2
134 | MYYC | ≤ 0.2
135 | SGDF | ≤ 0.2
136 | THAK | ≤ 0.2
137 | RMER | 0.227
138 | TFIM | ≤ 0.2
139 | MLFG | 0.277
140 | TLND | ≤ 0.2
141 | YQLG | ≤ 0.2
142 | WSRC | ≤ 0.2
143 | TNNF | ≤ 0.2
144 | TWKN | ≤ 0.2
145 | LHDM | ≤ 0.2
146 | TCTL | ≤ 0.2
147 | PMRT | ≤ 0.2
148 | RWDE | ≤ 0.2
149 | LMTH | ≤ 0.2
150 | QDKR | 0.32

Row | Variant | one-hybrid fitness for binding NBS DNA
151 | NLQG | ≤ 0.2
152 | PRTI | ≤ 0.2
153 | TQDL | ≤ 0.2
154 | WCKC | ≤ 0.2
155 | PSEW | ≤ 0.2
156 | SYTS | ≤ 0.2
157 | YKAY | ≤ 0.2
158 | KNER | ≤ 0.2
159 | VRDH | ≤ 0.2
160 | TRRM | ≤ 0.2
161 | YAYS | ≤ 0.2
162 | MYWR | ≤ 0.2
163 | FDVS | ≤ 0.2
164 | QVCP | ≤ 0.2
165 | SCKV | ≤ 0.2
166 | TADM | ≤ 0.2
167 | PDFG | ≤ 0.2
168 | VSSG | ≤ 0.2
169 | WIKE | ≤ 0.2
170 | PCWT | ≤ 0.2
171 | HEKT | ≤ 0.2
172 | NLFS | ≤ 0.2
173 | PFFD | ≤ 0.2
174 | LTRN | ≤ 0.2
175 | RVMF | ≤ 0.2

Row | Variant | one-hybrid fitness for binding NBS DNA
176 | DKLV | ≤ 0.2
177 | PWTS | ≤ 0.2
178 | HRWG | ≤ 0.2
179 | RPCV | ≤ 0.2
180 | EFST | ≤ 0.2
181 | DPVE | ≤ 0.2
182 | AADM | ≤ 0.2
183 | CCHR | ≤ 0.2
184 | TCNT | ≤ 0.2
185 | QQKW | 0.382
186 | ELKC | ≤ 0.2
187 | AEHL | ≤ 0.2
188 | LLNE | ≤ 0.2
189 | PPPN | ≤ 0.2
190 | APNC | ≤ 0.2
191 | DRDL | ≤ 0.2
192 | DLWR | ≤ 0.2
193 | ASQE | ≤ 0.2
194 | TDYN | ≤ 0.2
195 | LDDL | ≤ 0.2

Reference: a collection of fitness landscapes (doi:10.1016/j.celrep.2020.107928)
